B1: LINE1-full (parent)
chain: UACGUAGGUGGUUUUCCCCUGAUAGUGCUAAGGGGGCCUGGAAGUUUGGACUGGGCAGAGCUCAACACAGCGUGGCAAAGUGGCUGUGGCUAGACUGCCUCUCUGGAUUCCUCGUCACUCAGCAGGGCAUCUCUGAGAGAAAUGCC

Read counts are not given, so values of variants with three or more changes are uncertain.

This note sets out measurements from the RNAGym collection of RNA variant scans (doi:10.7554/elife.90254).

The variants in the series derive from B1. The series is described as follows: self-cleavage, relative activity (ratio to wild type); higher = more cleavage; in vitro, sequencing; the parent is a self-cleaving ribozyme.
With UACGUAGGUGGCUUUCCCCUGAUAGUGCUAAGGGGGCCUGGAAGUUUGGACUGGGCAGGGCUCAACACAGCGUGGCAAAGUGGCUGUGGCUAGACUGCCUCCCUGGGUUCCUCGUCACUCAGCAGGGCAUCUCUGAGAGAAAUGCC, the self-cleavage turned out to be 0. The figure for UACGUAGGUGGCUUUCCCCUGAUAGUGCUAAGGGGGCCUGGAAGUUUGGACUGGGCAGAGCUCGACACUGCGUGGCAAAGUGGCUGUGGCUAGACUGCCUCUCUGGAUUCCUCGACACUCAGCAGGGCAUCCCUGAGAGAAAUGCC is 0.09.

With UACGUAGGUGGCUUUCCCCUGAUAGUGCUAAGGGGGCCUGGAAGUUUGGACUGGGCUGAGCUCAACACAGCGUGGCAAAGUGGCUGCGGCUAGACUGCCUCUCUGGAUUCCUCGUCACUCGGCAGGGCAUCUCUGAGGGAAAUGCC, the self-cleavage turned out to be 0.

Take UACGUAGGUGGCUUUCCCCUGAUAGUGCUAAGGGGGCCUGGAAGUUUGGACUGGGCUGAGCUCAACACAGCGUGGCAAAGUGGCUGUGGCUAGACUGCCUCUCUGGAUUCCUCGCCACUCAGCAGGGCACCUCUGAGAGAAAUGCC: the self-cleavage was found to be 0.37. As for UACGUAGGUGGCUUUCCCCUGAUAGUGCUAAGGGGGCCUGGAAGUUUGGACUGGGCAGAGCUCAACACAGCGUGGCAGAGUGGCUGUGGCUAGACGGCCUCUCUGGAUUCCUCGUCACUCAGCAGGGCAUCUCUGAGAGAAAUGCC, the self-cleavage is 0.48. The figure for UACGUAGGUGGCUUUCCCCUGAUAGUGCUAAGGGGGCCUGGAAGUUUGGACUGGGCAGAGCUCAACACAGCGUGGCAGAGUGGCUGUGGCUAGACCGCCUCUCUGGAUUCCUCGUCACUCAGCAGGGCAUCUCUGAGAGAAAUGCC is 0; for UACGUAGGUGGCUUUCCCCUGAUAGUGCUAAGGGGGCCUGGAAGUUUGGACUGGGCAGAGCUCAACACAGCGUGGCGAAGUGGCUGUGGCUAGACUGCCUCUCUGGAUUCCUCGUCACUCAGCAGGGCUUCUCUGAGAGAAAUGCC it is 1.31; for UACGUAGGUGGCUUUCCCCUGAUAGUGCUAAGGGGGCCUGGAAGUUUGGACUGGGCAGAGCUCAACACUGCGAGGCAAAGUGGCUGUGGCUAGACUGCCUCUCUGGAUUCCUCGUCACUCAGCAGGGCAUCUCUGAGAGAAAUGCC it is 0.07.

With UACGUAGGUGGCUUUCCCCUGAUAGUGCUAAGGGGGCCUGGAAGUUUGGACUGGGCAGAGCUCGACACAGCGUGGCAAAGUGGCUGUGGCUAGACUGCCUCUCUGGAUUCCCCGUCACUCAGUAGGGCAUCUCUGAGAGAAAUGCC, the self-cleavage turned out to be 0.33. The figure for UACGUAGGUGGCUUUCCCCUGAUAGUGCUAAGGGGGCCUGGAAGUUUGGACUGGGCAGUGCUCAACACAGCGUGGCAAAGUGGCUGUGGCUAGACUGCCUCCCUGGAUUCCUCGUCACUCAGCAGGGCAUCUCUGAGAGAAAUGCC is 1.08; for UACGUAGGUGGCUUUCCCCUGAUAGUGCUAAGGGGGCCUGGAAGUUUGGACUGGGCCGAGCUCAACACAGCGUGGCAAAGUGGCUGUGGCUAGACUGCCUCUCUGGAUUCCUUGUCACUCAGCGGGGCAUCUCUGAGAGAAAUGCC it is 0.12; for UACGUAGGUGGCUUUCCCCUGAUAGUGCUAAGGGGGCCUGGAAGUUUGGACUGGGCAGAGCUCAGCACAGCGUGGCAAAGUGGCUGUGGCUAGACUGCCUCUCUGGAUUCCACGUCACUCAGCGGGGCAUCUCUGAGGGAAAUGCC it is 0.

For UACGUAGGUGGCUUUCCCCUGAUAGUGCUAAGGGGGCCUGGAAGUUUGGACUGGGCAGAGCUCAACUCAGCGUGGCAAAGUGGCCGUGGCUAGACUGCCUCUCUGGAUUCCUCGUCACUCAGCAGGGCAUCUCUGAGAGAAGUGCC, the self-cleavage is 0.19. The figure for UACGUAGGUGGCUUUCCCCUGAUAGUGCUAAGGGGGCCUGGAUGUUUGGACUGGGCAGAGCCCAACACAGCGUGGCAAAGUGGCUGUGGCUAGACUGCCUCUCUGGAUUCCUCGUCACUCAGCAGGGCAUCUCUGAGAGAAAUGCC is 0.09. The figure for UACGUAGGUGGCUUUCCCCUGAUAGUGCUAAGGGGGCCUGGAAGUUUGGACUGGGCAGAGCUCAACACCGCGUGGCAAAGUAGCUGUGGCUAGACUGCCUCUCUGGAUUCCUCGUCACUCAGCAGGGCAUCUCUGAGAGAAAUGCC is 0.09; for UACGUAGGUGGCUUUCCCCUGAUAGUGCUAAGGGGGCCUGGAAGUUUGGACUGGGCGGAGCUCAACACAGCGUGGCAAAGUGGCUGUGGCUAGACUGCCUCUCUGGAUUCCUCGUCACUCGGCAGGGCAUUUCUGAGGGAAAUGCC it is 1.67. For UACGUAGGUGGCUUUCCCCUGAUAGUGCUAAGGGGGCCUGGAUGUUUGGACUGGGCAGAGCUCAACACAGCGUGGCAAGGUGGCUGUGGCUAGACUGCCUCUCUGGAUUCCUCGUCGCUCAGCAGGGCAUCUCUGAGAGAAAUGCC the value was 1.53; for UACGUAGGUGGCUUUCCCCUGAUAGUGCUAAGGGGGCCUGGAAGUUUGGACUGGGCAGAGCUCAACACUGCGUGGCAAAGUGGCUGUGGCUAGACUGCCUCUCUGGAUUCCCCGUCACUCAGCAGGGCAUCUCUGAGAGAAAUGCC, 0.26; for UACGUAGGUGGCUUUCCCCUGAUAGUGCUAAGGGGGCCUGGAAGUUUGGACUGGGCUGGGCUCAACACAGCGUGGCAAAGUGGCAGUGGCUAGACUGCCCCUCUGGAUUCCUCGUCACUCAGCAGGCCAUCUCUGAGAGAAAUGCC, 0.07. As to UACGUAGGUGGCUUUCCCCUGAUAGUGCUAAGGGGGCCUGGAAGUUUGGACUGGGCAGAGCUCAUCACAGCGUGGCAAAGUGGCUGUGGCUAGACUGCCUCUCUGGGUUCCUCGUCACUCAGCAGGGCAUCUCUGAGAGAAAUGCC, the self-cleavage worked out at 0.71. The figure for UACGUAGGUGGCUUUCCCCUGAUAGUGCUAAGGGGGCCUGGAAGUUUGGACUGGGCAGAGCUCUACACAGCGUGGCAAAGUGGCUGUGGCUAGACUGCCUUCCUGGAUUCCUCGUAACUCAGCAGGGCAUCUCUGAGAGAAAUGCC is 0.55; for UACGUAGGUGGCUUUCCCCUGAUAGUGCUAAGGGGGCCUGGAAGUUUGGACUGGGCAGGGCUCAACACAGCGUGGCAAAGUGGCUGUGGCUAGACUGCCUCUCUGGAUUCCUCGUCACUCGGCAGGGCAUCUCUGAGAGAAAUGCC it is 0.51. For UACGUAGGUGGCUUUCCCCUGAUAGUGCUAAGGGGGCCUGGAUGUUUGGACUGGGCAGAGCCCAACACAGCGUGGCAAUGUGGCUGCGGCUAGACUGCCUCUCUGGAUUCCUCGUCACUCAGCAGGGCAUCUCUGAGAGAAAUGCC the value was 0.1; for UACGUAGGUGGCUUUCCCCUGAUAGUGCUAAGGGGGCCUGGAAGUUUGGACUGGGCAGAGCUCAACACAGCGUGGCAAAGUGGCUGUGGCUGGACUGCCUCUCUGGAUUCCUCGUCACUCAGCAGGGCAUCUCUGAGAGAAAUACC, 0. Consider UACGUAGGUGGCUUUCCCCUGAUAGUGCUAAGGGGGCCUGGAAGUUUGGACUGGGCAGAGCUCAACACGGCGUGGCAAAGUGGCUGUGGCUAGACUGCCUCUCUGGAUUCCUCGUCACACAGCAGGGCAUCUCUGAGAGAAAUGCC, for which the self-cleavage is 0.55.

Turning to UACGUAGGUGGCUUUCCCCUGAUAGUGCUAAGGGGGCCUGGAAGUUUGGACUGGGCAGAGCUCGACACAGCGUGGCAAAGUGGCUGUGGCUAGACUGCCUCCCUGGAUACCUCGACACUCAGCAGGGCAUCUCUGAGAGAAAUGCC, the self-cleavage worked out at 0.3. On to UACGUAGGUGGCUUUCCCCUGAUAGUGCUAAGGGGGCCUGGAAGUUUGGGCUGGGCAGAGCUCAACACAGCGUGGCAGAGUGGCUGUGGCCAGACUGCCUCUCUGGAUUCCUCGUCACUCAGCAGGGCAUCUCUGAGAGAGAUGCC, for which the self-cleavage stood at 0.

Regarding UACGUAGGUGGCUUUCCCCUGAUAGUGCUAAGGGGGCCUGGAAGUUUGGACUGGGCAGAGCUCAACACAGCGUGGCAAGGUGGCUGUGGCUAGACUGCCUCUCUGGAUUCCUCGUCACUCAGCAGGGCAUCUCUGGGAGAAAUGCC, the self-cleavage amounted to 0.93. Regarding UACGUAGGUGGCUUUCCCCUGAUAGUGCUAAGGGGGCCUGGAAGUUUGGGCUGGGCAGAGCUCAACGCAGCGUGGCAAAGUGGCUGUGGCUAGACUGCCUCUCUGGAUUCCUCGUCACUCAGCAGGGCAUCUCUGAGAGAAAUGCC, the self-cleavage was 2.04. The figure for UACGUAGGUGGCUUUCCCCUGAUAGUGCUAAGGGGGCCUGGAAGUUUGGACUGGGCAGAGCUCAACACGGCGUGGCAAAGUGGCUGAAGCUAGACUGCCUCUCUGGAUUCCUCGUCACUCAGCAGGGCAUCUCUGAGAGAAAUGCC is 0. The figure for UACGUAGGUGGCUUUCCCCUGAUAGUGCUAAGGGGGCCUGGAAGUUUGGACUGGGCAGAGCUCAACGCAGCGCGGCAGAGUGGCUGUGGCUAGACUGCCUCUCUGGAUUCCUCGUCACUCAGCAGGGCAUCUCUGAGAGAAAUGCC is 2.3; for UACGUAGGUGGCUUUCCCCUGAUAGUGCUAAGGGGGCCUGGAAGUUUGGACUGGGCAGAGCUCAUCACAGCGUGGCGAAGUGGCUGUGGCUAGACUGCCUCUCUGGAAUCCUCGUCACUCAGCAGGGCAUCUCUGAGAGAAAUGCC it is 0.31; for UACGUAGGUGGCUUUCCCCUGAUAGUGCUAAGGGGGCCUGGAAGUUUGGGCUGGGCAGAGCUCAACACAGCGCGGCAAAGUGGCUGUGGCUAGACUGCCUCUCUGGAUUCCUCGUCACUCAGCAGGGCAUCUCUGAGAGAAAUGCC it is 0. The figure for UACGUAGGUGGCUUUCCCCUGAUAGUGCUAAGGGGGCCUGGAAGUUUGGGCUGGGCAGUGCUCAACACAGCGUGGCAAAGUGGCUGUGGCUAGACUGCCUCUCUGGAUUCCUCGUCACUCAGCAGGGCAUCUCUGAGAGAAAUGCC is 0.66. For the variant UACGUAGGUGGCUUUCCCCUGAUAGUGCUAAGGGGGCCUGGAAGUUUGGACUGGGCAGAGCUCGUCACAGCGUGGCAAAGUGGCUGUGGCUAGACUGCCUCUCGGGAUUCCACGUCACUCAGCAGGGCAUCUCUGAGAGAAAUGCC, the self-cleavage came out at 0. For the variant UACGUAGGUGGCUUUCCCCUGAUAGUGCUAAGGGGGCCUGGAAGUUUGGACUGGGCAGAGCUCUACACAGCGUGGCAAAGUGGCUGGGGCUAGACUGCCUCUCUGGAUUCCUCGUCACUCAGCAGGGCAUCUCUGAGAGAAAUGCC, the self-cleavage is 0. The figure for UACGUAGGUGGCUUUCCCCUGAUAGUGCUAAGGGGGCCUGGAAGUUUGGACUGGGCAGAGCUCAACACAGCGUGGCGAAGUGGCUGUGGCUAGACAGCCUCUCUGGAUUCCUCGUCACUCAGCAGGGCAUCUCUGAGAGAAAUGCC is 0.14; for UACGUAGGUGGCUUUCCCCUGAUAGUGCUAAGGGGGCCUGGAGGUUUGGACUGGGCAGAGCUCAACACAGCGUGGCAAAGUGGCUGUGGCUAGACUGCCUCUCUGGAUGCCUCGUCACUCAGCAGGGCAUCUCUGAGAGAAAUGCC it is 0.85. The figure for UACGUAGGUGGCUUUCCCCUGAUAGUGCUAAGGGGGCCUGGAAGUUUGGACUGGGCAGAGCUCAACACGGCGUGGCAGAGUGGCUGUGGCUAGACUGCCUCUCUGGAUUCCUCGUCACUCAGCAGGGCAUCUCUGAGAGAAAUGCC is 0.
